Test results published in publication PMC13083723 (Patterns, 2026).
The whole screen tested about 5,400 compounds, of which about 190 (3.5%) showed an effect of 50% or more. The list shows a part of the results. Positions of bridges follow the written chain, without caps; N, C: chain ends. Non-standard residues stand in square brackets, D forms with d. Residues, ends and D or L forms follow the SMILES beside them. *: point of attachment. Heptanoyl(5-Me) = CCC(C)CCCC(=O)*; Dab = NCC[C@H](N)C(=O)O

test system: Vero-E6; assay: primary screen, phospholipidosis by LipidTOX staining; higher = more effect of the substance; settings: 10 µM
Outline: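 Single-concentration screen at 10 μM, with DMSO 0.1 v/v % and amiodarone 10 μM as controls. Read-out is LipidTOX Red phospholipid staining, which tolerates aldehyde fixation, in Vero-E6 cells.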

SMILES	result_ITMP
COc1ccc(OCC2c3cc(OC)c(OC)cc3CCN2C(=O)c2cccc(Cl)c2)cc1 (stereo not drawn)	-4.92%
COc1cc(C(=O)NC2CCCNC2)cc(OC)c1OC (stereo not drawn)	-4.69%
CC(C)(S)C(N)C(=O)O (stereo not drawn)	-0.26%
C[C@@H]1NC(C)(C)CO[C@@]1(O)c1cccc(Cl)c1	-1.66%
c1ccc(N2CCN(Cc3nc4ccccc4[nH]3)CC2)nc1	-2.24%
COC(=O)c1c(-c2cc(OC)c(OC)c(OC)c2)c2ccnc(OCc3ncccn3)c2c(=O)n1Cc1ccnc(C)c1	-1.68%
CCn1c(=O)/c(=C2\Sc3ccccc3N2C)s/c1=C/c1cccc[n+]1CC	-7.97%
c1cnc2c([O][Ga]([O]c3cccc4cccnc34)[O]c3cccc4cccnc34)cccc2c1	5.3%
CN[C@@H]1[C@H](OC2[C@H](O[C@H]3[C@H](O)[C@@H](O)[C@H](NC(=N)N)[C@@H](O)[C@@H]3NC(=N)N)O[C@@H](C)[C@]2(O)C=O)O[C@@H](CO)[C@H](O)[C@H]1O (stereo partly drawn)	-1.71%
COC(=O)c1cc(OC)c2c(c1-c1c(CO)cc(OC)c3c1OCO3)OCO2	-7.12%
N#Cc1cc2[nH]c(=O)c(=O)[nH]c2cc1[N+](=O)[O-]	-1.93%
CNC(=O)Nc1ccc(-c2nc(N3CC4CCC(C3)O4)c3cnn(C4CCC5(CC4)OCCO5)c3n2)cc1	2.27%
CCOC(=O)c1ncc2[nH]c3cccc(OC(C)C)c3c2c1C	-2.37%
CCCCC/N=c1/ccn(Cc2ccccc2)c2ccccc12	-2.27%
COC1=C2C[C@@H](C)C[C@H](OC)[C@H](O)[C@@H](C)/C=C(\C)[C@H](OC(N)=O)[C@@H](OC)/C=C\C=C(/C)C(=O)NC(=CC1=O)C2=O	-2.67%
COc1ccc(C(=O)c2ccc(C)cc2)c(O)c1	-5.75%
CCCCCCCCCCCCCCCCCCCCCCCCCCCCO	5.71%
CCCCNc1ncc2c(-c3ccc(CN4CCN(C)CC4)cc3)cn([C@H]3CC[C@H](O)CC3)c2n1	38.5%
O=C([O-])C[C@H](O)C[C@H](O)CCc1c(C2CC2)nc2ccccc2c1-c1ccc(F)cc1	-2.97%
NC(=O)NC(=O)Cc1ccccc1	-2.14%
O=C(O)CN1CCN(CC(=O)O)CCN(CC(=O)O)CCN(CC(=O)O)CC1	1.35%
c1ccc2[nH]c(-c3cscn3)nc2c1	-2.69%
Cn1cc(-c2ccc3nnc(C(F)(F)c4ccc5ncccc5c4)n3n2)cn1	-3.45%
CNC(=O)O[C@H]1COc2ccc(N3CCN(C4COC4)CC3)cc2[C@@H]1NC(=O)c1ccc(F)cc1	-1.74%
CCC(CC)CC1(C(=O)Nc2ccccc2SC(=O)C(C)C)CCCCC1	2.05%
CC(C)(C)NC(=O)N[C@H](C(=O)N1C[C@H]2[C@@H]([C@H]1C(=O)NC(CC1CCC1)C(=O)C(N)=O)C2(C)C)C(C)(C)C (stereo partly drawn)	-2.27%

SMILES	result_ITMP
COc1ccc(CNC(=O)c2cc(-c3cncc(C)c3)ncc2-c2nccs2)nc1OC	-4.6%
Cn1c(=O)cc(N2CCC[C@@H](N)C2)n(Cc2ccccc2C#N)c1=O	-11.2%
CCOc1ccc(-c2nc(-c3cccc4c3CCC4NCCO)no2)cc1OCC (stereo not drawn)	108%
CCCCCCCN(CC)CCCC(O)c1ccc(NS(C)(=O)=O)cc1 (stereo not drawn)	-0.39%
C=C1C[C@]23C[C@@]1(O)CC[C@H]2[C@@]12C=C[C@H](O)[C@@](C)(C(=O)O1)[C@H]2[C@@H]3C(=O)O	-2.41%
NC[C@H]1O[C@H](O[C@H]2[C@H](O)[C@@H](O[C@H]3O[C@H](CO)[C@@H](O)[C@H](N)[C@H]3O)[C@H](N)C[C@@H]2N)[C@H](N)C[C@@H]1O	-2.69%
COC(=O)NC(=S)Nc1ccccc1NC(=S)NC(=O)OC	1.29%
COc1ccc(-c2cc(=O)c3c(O)cc(O[C@@H]4O[C@H](CO[C@@H]5O[C@@H](C)[C@H](O)[C@@H](O)[C@H]5O)[C@@H](O)[C@H](O)[C@H]4O)cc3o2)cc1O	-0.7%
C[N+](C)(C)NCCC(=O)[O-]	-4.85%
CCC1(CC)C(=O)NC(=O)N(C)C1=O	-0.15%
CS(=O)(=O)CCNCc1nc(-c2ccc3ncnc(Nc4ccc(OCc5cccc(F)c5)c(Cl)c4)c3c2)cs1	2.46%
CCOc1ccccc1OCCN[C@H](C)Cc1ccc(OC)c(S(N)(=O)=O)c1	20.3%
C[C@@H]1CCCN1CCc1cc2cc(-c3ccc(C#N)cc3)ccc2o1	66.8%
CCC(C)CCCC(=O)N[C@@H](CCN)C(=O)N[C@H](C(=O)N[C@@H](CCN)C(=O)N[C@H]1CCNC(=O)[C@H]([C@@H](C)O)NC(=O)[C@H](CCN)NC(=O)[C@H](CCN)NC(=O)[C@H](CC(C)C)NC(=O)[C@@H](CC(C)C)NC(=O)[C@H](CCN)NC1=O)[C@@H](C)O (stereo partly drawn) [R4A_0005175_001 / SPE_A36456202] ({Heptanoyl(5-Me)}-[Dab]T[Dab][Dab][Dab][dL]L[Dab][Dab]T; lactam 4-C)	-0.45%
OC[C@H]1NCC[C@@H](O)[C@@H]1O	-2.04%
CC(=O)[C@H]1CC[C@H]2[C@@H]3CC[C@H]4C[C@H](O)CC[C@]4(C)[C@H]3C(=O)C[C@]12C	0.24%
CCCCCCCCCCCCC[N+](C)(C)Cc1ccccc1	-2.95%
CN(C)/N=N/c1ccc(C(=O)O)cc1	-2.68%
COc1ccc(Nc2ncnc3ccc(OC)cc23)cc1	-9.56%
CC[C@]1(O)C[C@@H]2C[N@@](CCc3c([nH]c4ccccc34)[C@@](C(=O)OC)(c3cc4c(cc3OC)N(C=O)[C@H]3[C@@](O)(C(=O)OC)[C@H](OC(C)=O)[C@]5(CC)C=CCN6CC[C@]43[C@@H]65)C2)C1	1.05%
CCn1cc(C(=O)O)c(=O)c2cnc(N3CCCC3)nc21	7.42%
CCOc1cc(C=O)ccc1O	-6.4%
CC(=O)Nc1c(I)c(C(=O)O)c(I)c(N(C)C(C)=O)c1I	3.92%
CC(C)(C)NC[C@H](O)c1ccc(O)c(CO)c1	-3.42%
Clc1ccccc1CNC[C@H]1CC[C@H](CNCc2ccccc2Cl)CC1	111%
CN(C)C1CCN(C(=O)c2ccc(NC(=O)Nc3ccc(-c4nc(N5CCOCC5)nc(N5CCOCC5)n4)cc3)cc2)CC1	-2.9%

SMILES	result_ITMP
CC(=O)O[C@]1(C(C)=O)CC[C@H]2[C@@H]3C=CC4=CC(=O)CC[C@]4(C)[C@H]3CC[C@@]21C	-8.84%
COc1cc(C=O)c([N+](=O)[O-])cc1OC	-11.7%
CCCCNC(=O)NS(=O)(=O)c1ccc(C)cc1	-2.32%
C[C@@H]1O[C@@H](O[C@H]2[C@H](Oc3cc(O)c(C(=O)CCc4ccc(O)cc4)c(O)c3)O[C@H](CO)[C@@H](O)[C@@H]2O)[C@H](O)[C@H](O)[C@H]1O	-7%
C[C@@H]1CC(=O)c2c(ccc3c2C(=O)c2cccc(O)c2C3=O)C1	-0.1%
O=C(O)c1cc(-c2ccc(F)cc2F)ccc1O	-2.89%
Cc1cccc(-c2[nH]c(CNc3ccccc3F)nc2-c2ccc3ncnn3c2)n1	-2.97%
CCOC(=O)OC(C)OC1=C(C(=O)Nc2ccccn2)N(C)S(=O)(=O)c2ccccc21 (stereo not drawn)	-0.19%
O=C(Nc1c(Cl)cncc1Cl)c1ccc(OC(F)F)c(OCC2CC2)c1	-1.64%
CC(=O)[C@H]1CC[C@H]2[C@@H]3C[C@H](C)C4=CC(=O)CC[C@]4(C)[C@H]3[C@@H](O)C[C@]12C	-3.27%
Cc1ccccc1/N=N/c1ccc(NC(=O)c2ccnn2C)c(C)c1	-3.95%
CCCS(=O)(=O)Nc1ccc(F)c(C(=O)c2c[nH]c3ncc(-c4ccc(Cl)cc4)cc23)c1F	-4.85%
C[C@H](CCC(=O)O)[C@H]1CC[C@H]2[C@@H]3C[C@H](O)[C@@H]4C[C@H](O)CC[C@]4(C)[C@H]3CC[C@]12C	1.59%
COc1ccc2nc(NC(=O)Nc3ccccc3)sc2c1	-0.57%
CCC(=O)O[C@]1(C(=O)CCl)[C@@H](C)C[C@H]2[C@@H]3C[C@H](F)C4=CC(=O)C=C[C@]4(C)[C@@]3(F)[C@@H](O)C[C@@]21C	4.24%
CC(C)Oc1ccc2c(=O)c3cc(C(=O)O)ccc3oc2c1	-6.26%
N#Cc1c(-c2ccccc2)cc(-c2cc(Br)ccc2O)[nH]c1=O	-1.86%
Cc1c(C(=O)NN2CCOCC2)nn(-c2ccc(Cl)cc2Cl)c1-c1ccc(I)cc1	-3.78%
O=C(c1cc(O)c(O)c(O)c1)c1ccc(O)c(O)c1O	10.6%
C=C1C(=O)O[C@@H]2C[C@@]3(C)CCC[C@H](C)C3=C[C@H]12	2.6%
Nc1ncnc2c1c(-c1ccc(Cl)cc1)nn2-c1cccc(-c2cnnn2Cc2cccc(-c3ccccc3)c2)c1	0.23%
O=C(Nc1ccccc1C(=O)Nc1ccc(CCO)cc1)c1ccc([N+](=O)[O-])cc1	0.34%
Cc1cnc(CNC(=O)c2c(=O)c3ccc(N4CCCN(C)CC4)nc3n3c2sc2ccccc23)cn1	5.49%
O=C(O)Cc1sc(-c2ccccc2)nc1-c1ccc(Cl)cc1	-1.64%
CC(=O)OCC(=O)[C@@]12N=C(C)O[C@@H]1C[C@H]1[C@@H]3CCC4=CC(=O)C=C[C@]4(C)[C@H]3[C@@H](O)C[C@@]12C	0.49%
C#CCN1C(C)=C(C(=O)OC)C(c2cccc([N+](=O)[O-])c2)C(C(=O)OCC)=C1C (stereo not drawn)	-8.73%
